# Test results reported in the supplement of paper PMC11181314.
# This is one part of the list. Single values of this set are uncertain.
# Tested on: U2OS
# Experiment: Cell Painting induction (percent of morphological features significantly changed vs DMSO); higher = stronger morphological change
# Conditions: 10 µM; 20 h; run: confirmation repeat
# Description: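 Cell Painting assay in U2OS cells: compounds at 10 µM for 20 h, six dyes, 579 robust CellProfiler features as Z-scores vs DMSO median (MAD). Induction is the % of significantly changed features (active if ≥5%); relative cell count is in % of DMSO. The primary run holds DCM compounds preselected for induction ≥10%; the confirmation repeat defines active compounds (370 of 549). Replicate agreement is low, attributed to precipitation.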
# 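Further: stains mark DNA, RNA and nucleoli, ER, actin, Golgi, plasma membrane and mitochondria, read by high-content imaging, with DMSO controls at matching solvent concentration.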
row,Structure (SMILES),Cell Painting induction
1,CCOc1cc(C(=O)Nc2cc3c(cc2N2CCOCC2)n(C)c(=O)n3C)cc(OCC)c1OCC,active: 12.1%
2,Cc1ccc(/C=C2/Sc3ccc(C(=O)NCCN4CCOCC4)cc3NC2=O)cc1,active: 15.4%
3,COc1ccc(OC)c(CN2CCN(Cc3cc(OC)c(OC)c(OC)c3)CC2)c1,inactive: 0.5%
4,CC1(C)CC(NC(=O)C(=O)NCCc2ccc(Cl)cc2)CC(C)(C)N1,active: 6.4%
5,CCOC(=O)C1CCN(c2c(Nc3cc(C)cc(C)c3)c(=O)c2=O)CC1,active: 20.7%
6,COc1cccc(CN2CCN(Cc3cc(OC)c(OC)c(OC)c3)CC2)c1OC,inactive: 1%
7,CCCCN(C(=O)c1cccc(S(=O)(=O)N2CCCCC2)c1)C1CCS(=O)(=O)C1 (stereo not given),active: 8.6%
8,CN(C)CCCNc1oc(-c2ccccc2Cl)nc1S(=O)(=O)c1ccccc1,active: 56.6%
9,CCOc1cc(C#N)c(NC(=O)CSc2nnnn2-c2ccc(OC)cc2)cc1OCC,inactive: 4.7%
10,O=C(Cn1ncc2c([nH]c3ccccc32)c1=O)NCCCN1CCN(c2ccccc2)CC1,active: 18.8%
11,Cc1ccc(C(=O)c2coc3ccc(O)c(CN(C)C)c23)cc1,active: 12.1%
12,COc1ccc(CNc2ncc(-c3ccc(Br)cc3)n2C)cc1OC,inactive: 4.5%
13,Cc1ccc2cc(CN(c3cccc(C)c3C)S(=O)(=O)c3ccccc3)c(O)nc2c1,active: 22.5%
14,CCN(CC)Cc1nc(O)c2c(n1)-c1ccccc1CC2(CC)CC,active: 16.6%
15,CCOCCCN(C)C1CCN(C(=O)c2oc3ccccc3c2NC(=O)Cc2ccc(F)cc2)CC1,active: 54.9%
16,Cc1cccc(NC(=O)c2cc(S(=O)(=O)N3CCc4ccccc43)cn2C)c1,active: 12.6%
17,COc1ccc(Cn2c(=O)[nH]c3cc(C(=O)N4CCN(c5ccccc5OC)CC4)ccc3c2=O)cc1,active: 32.1%
18,CC1CCN(c2ccc3nnc(CCC(=O)N4CCN(c5ccccc5F)CC4)n3n2)CC1,active: 6.6%
19,CCOc1ccccc1Nc1nc2c(S(=O)(=O)c3ccccc3)nnn2c2ccccc12,inactive: 0.2%
20,Cc1ccc2nc(N(CCCN(C)C)C(=O)c3ccc(S(=O)(=O)N(C)C)cc3)sc2c1,active: 13.3%

# Same assay, conditions: 10 µM; 20 h; run: primary screen (compounds selected for induction >=10%)
row,Structure (SMILES),Cell Painting induction
1,CCOc1cc(C(=O)Nc2cc3c(cc2N2CCOCC2)n(C)c(=O)n3C)cc(OCC)c1OCC,17.1%
2,Cc1ccc(/C=C2/Sc3ccc(C(=O)NCCN4CCOCC4)cc3NC2=O)cc1,45.6%
3,COc1ccc(OC)c(CN2CCN(Cc3cc(OC)c(OC)c(OC)c3)CC2)c1,10.2%
4,CC1(C)CC(NC(=O)C(=O)NCCc2ccc(Cl)cc2)CC(C)(C)N1,24%
5,CCOC(=O)C1CCN(c2c(Nc3cc(C)cc(C)c3)c(=O)c2=O)CC1,33.5%
6,COc1cccc(CN2CCN(Cc3cc(OC)c(OC)c(OC)c3)CC2)c1OC,12.3%
7,CCCCN(C(=O)c1cccc(S(=O)(=O)N2CCCCC2)c1)C1CCS(=O)(=O)C1 (stereo not given),15.4%
8,CN(C)CCCNc1oc(-c2ccccc2Cl)nc1S(=O)(=O)c1ccccc1,45.9%
9,CCOc1cc(C#N)c(NC(=O)CSc2nnnn2-c2ccc(OC)cc2)cc1OCC,12.1%
10,O=C(Cn1ncc2c([nH]c3ccccc32)c1=O)NCCCN1CCN(c2ccccc2)CC1,29.9%
11,Cc1ccc(C(=O)c2coc3ccc(O)c(CN(C)C)c23)cc1,11.4%
12,COc1ccc(CNc2ncc(-c3ccc(Br)cc3)n2C)cc1OC,25.9%
13,Cc1ccc2cc(CN(c3cccc(C)c3C)S(=O)(=O)c3ccccc3)c(O)nc2c1,33.9%
14,CCN(CC)Cc1nc(O)c2c(n1)-c1ccccc1CC2(CC)CC,31.8%
15,CCOCCCN(C)C1CCN(C(=O)c2oc3ccccc3c2NC(=O)Cc2ccc(F)cc2)CC1,42.7%
16,Cc1cccc(NC(=O)c2cc(S(=O)(=O)N3CCc4ccccc43)cn2C)c1,10.7%
17,COc1ccc(Cn2c(=O)[nH]c3cc(C(=O)N4CCN(c5ccccc5OC)CC4)ccc3c2=O)cc1,43.4%
18,CC1CCN(c2ccc3nnc(CCC(=O)N4CCN(c5ccccc5F)CC4)n3n2)CC1,13.6%
19,CCOc1ccccc1Nc1nc2c(S(=O)(=O)c3ccccc3)nnn2c2ccccc12,20.9%
20,Cc1ccc2nc(N(CCCN(C)C)C(=O)c3ccc(S(=O)(=O)N(C)C)cc3)sc2c1,17.1%
